# Test results: PubChem BioAssay (NCATS)
# “And” between values parts separate entries of the source, which are not always exact repeats. Equal values may be shown once. Inconclusive results, whose numbers are uncertain, are shown with a selection of clear calls. For some of these results: A potency beside an inconclusive call is a rough fit, not a confirmed value. Some compounds were tested as several samples or in several runs, with calls that do not always agree. The source made the active and inactive calls. Unless noted, calls come from the whole dose curve; as a rule, active = well fitted curve in the direction sought with a large enough effect; inconclusive = small, poorly fitted or top-dose-only effect, or another doubt; inactive = no such curve, though single readings can be large; an effect the other way counts as inactive or inconclusive.
# Columns and labels:
# [1] = qHTS Screen of the MIPE 4.0 Collection Against Ewings Sarcoma (RDES) (AID 1259252); note: nearly all actives have a fitted effect of over 35% in size;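 for viability (percent of control): 100% = DMSO-treated cells and 0% = medium-only wells without cells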
# Method in brief: (§1)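 Here, cells in 5% FBS RPMI were exposed for two days (48 h) to compound dilutions added four hours after plating. ATP-based CellTiter-Glo luminescence measured viability, normalized to vehicle and no-cell blanks.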
# [2] = P-glycoprotein substrates identified in KB-8-5-11 adenocarcinoma cell line, qHTS therapeutic library screen (AID 1346987); note: nearly all actives have a fitted effect of over 65% in size
# Method in brief: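 P-gp-mediated resistance screen: KB-8-5-11 cells treated 72 h with compounds in dose-response. CellTiter-Glo viability.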
# [3] = qHTS Screen of the MIPE 4.0 Collection Against Ewings Sarcoma (TC71) (AID 1259253); note: nearly all actives have a fitted effect of over 40% in size
# Method in brief: as §1
# [4] = qHTS Screen of the MIPE 4.0 Collection Against Ewings Sarcoma (TC32) (AID 1259256); conditions: TC32 Ewing sarcoma viability, CellTiter-Glo, 48 h; viability (percent of control): at 45.8 µM (top of the series); note: nearly all actives have a fitted effect of over 45% in size;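 for viability (percent of control): 100% = DMSO-treated cells and 0% = medium-only wells without cells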
# Method in brief: as §1
# [5] = NS1 protein of Zika virus - qHTS assay to identify small molecule inhibitors in human HEK 293 cells (AID 1347053); note: nearly all actives have a fitted effect of over 55% in size
# Method in brief: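 HEK 293 cells, seeded 20 h at 37 C, were pretreated with compound 1 h, then infected with ZIKV MR766 (MOI = 0.5) for 24 h. NS1 was read by TR-FRET with two anti-NS1 antibodies, normalized to uninfected and infected wells.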
# [6] = qHTS Screen of the MIPE 4.0 Collection Against Ewings Sarcoma (EW8) (AID 1259255); note: nearly all actives have a fitted effect of over 35% in size;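 for viability: 100% = DMSO-treated cells and 0% = medium-only wells without cells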
# Method in brief: as §1
# [7] = Natriuretic polypeptide receptor (hNpr1) antagonism - Pilot counterscreen GloSensor control cell line (AID 1347045; calls by dose curve)
# Method in brief: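 This counterscreen uses HEK293 cells expressing the GIP/pGS-40F cGMP biosensor. Compound-treated cells are challenged with 50 uM sodium nitroprusside, and the luciferase signal is compared before and after stimulation.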
# [8] = molecular target: Atrial natriuretic peptide receptor 2 (Homo sapiens) (UniProt P20594); experiment: Natriuretic polypeptide receptor (hNpr2) antagonism - Pilot subtype selectivity assay (AID 1347050; calls by dose curve)
# Method in brief: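 cGMP-sensor HEK293/hNpr2 cells; 2% GloSensor reagent 2 h RT; compounds 30 min; baseline luminescence read; 1 nM hNppC agonist 20 min RT; final luminescence read by CCD camera. Antagonism = reduced post-agonist signal.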
# [9] = qHTS assay to identify small molecule inhibitors of chordoma cells - UCH-1 (AID 1259355); note: nearly all actives have a fitted effect of over 55% in size
# Method in brief: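 Luminescent ATP read-out (CellTiter-Glo, 30min at room temperature) measured viability of UCH-1 cells exposed for 48hr to test drugs at 15 concentrations, co-dosed with a five-agent combination of auranofin, camptothecin, doxorubicin, rubitecan and topotecan.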
# [10] = P-glycoprotein substrates identified in KB-3-1 adenocarcinoma cell line, qHTS therapeutic library screen (AID 1346986); note: nearly all actives have a fitted effect of over 60% in size;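 note: potency is for cytotoxicity meaning loss of cell viability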
# Method in brief: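 KB-3-1 parental cells and P-gp-overexpressing KB-8-5-11 (colchicine omitted during assay) plated at 500 cells/well, dosed in dose-response, incubated 72 h at 37 degree C. CellTiter-Glo luminescence read; KB-8-5-11 also tested with tariquidar.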
# [11] = qHTS assay for cell viability of HEK293 cells (AID 743288); conditions: ATP luminescence (CellTiter-Glo), 18 h; max response: stronger effect = lower value; note: nearly all actives have a fitted effect of over 50% in size
# Method in brief: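 Luminescent ATP quantitation served as the viability read-out. Cells (parental HEK293, 2,000/well) received compounds after at least 5 h at 37 C and were exposed for 18 h before a 30 min room-temperature reagent step.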
# Potency is the fitted concentration of half-maximal effect; tags give direction and shape of the fitted curve.
# Sequence of UniProt P20594 (P20594 whole entry, looked up): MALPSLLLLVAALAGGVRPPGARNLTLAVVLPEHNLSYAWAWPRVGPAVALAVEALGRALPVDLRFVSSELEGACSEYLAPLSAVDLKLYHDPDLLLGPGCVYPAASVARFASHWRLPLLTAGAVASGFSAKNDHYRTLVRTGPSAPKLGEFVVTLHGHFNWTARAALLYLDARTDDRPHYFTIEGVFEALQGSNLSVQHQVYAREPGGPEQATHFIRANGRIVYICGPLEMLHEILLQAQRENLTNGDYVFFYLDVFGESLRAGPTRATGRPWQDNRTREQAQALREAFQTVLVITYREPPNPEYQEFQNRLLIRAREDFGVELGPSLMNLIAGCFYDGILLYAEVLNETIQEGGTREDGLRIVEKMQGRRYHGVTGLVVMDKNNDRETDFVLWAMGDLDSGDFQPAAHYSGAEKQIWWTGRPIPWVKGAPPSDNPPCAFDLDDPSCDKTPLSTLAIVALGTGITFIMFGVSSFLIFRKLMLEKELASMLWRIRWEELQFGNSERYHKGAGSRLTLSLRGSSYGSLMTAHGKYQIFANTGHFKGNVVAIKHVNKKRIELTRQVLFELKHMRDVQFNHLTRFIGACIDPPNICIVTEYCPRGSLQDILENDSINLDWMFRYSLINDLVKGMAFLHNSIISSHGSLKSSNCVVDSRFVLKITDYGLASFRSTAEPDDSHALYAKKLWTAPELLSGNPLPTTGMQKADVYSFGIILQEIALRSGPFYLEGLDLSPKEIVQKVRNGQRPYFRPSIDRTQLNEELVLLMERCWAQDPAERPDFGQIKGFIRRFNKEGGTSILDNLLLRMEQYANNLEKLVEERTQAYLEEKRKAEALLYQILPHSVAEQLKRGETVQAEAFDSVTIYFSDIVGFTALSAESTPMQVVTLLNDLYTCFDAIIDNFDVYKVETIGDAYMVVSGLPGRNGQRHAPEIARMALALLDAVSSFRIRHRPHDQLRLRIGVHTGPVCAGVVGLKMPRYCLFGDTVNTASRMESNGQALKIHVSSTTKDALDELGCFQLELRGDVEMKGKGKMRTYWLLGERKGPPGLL
smiles,measurement,setting,value
CSCC[C@@H](NC(=O)[C@@H](Cc1ccccc1)NC(=O)CNC(=O)CNC(=O)[C@@H](N)Cc1ccc(O)cc1)C(=O)O,Potency,[1],inactive
same,Potency,[2],inactive
CC(C)(C)c1cc(C=C(C#N)C#N)cc(Br)c1O,Potency,[1],"inconclusive: 37.2 µM [inhibitor, single point]"
same,Potency,[3],"inconclusive: 33.2 µM [inhibitor, single point]"
same,Potency,[4],active: 26.4 µM
same,Potency,[2],"inconclusive: 33.2 µM [inhibitor, single point] and inconclusive: 29.1 µM [inhibitor, single point]"
same,Potency,[5],"inconclusive: 33.2 µM [inhibitor, single point]"
CCOC(=O)c1c(C(C#N)=CN)c2ccc(Cl)c(Cl)c2n1C,Potency,[1],"inconclusive: 37.2 µM [inhibitor, partial curve, poor fit]"
same,Potency,[6],inactive
COc1ccc2c(c1)[C@]13CCCCC1C(C2)N(C)CC3 (some centres not stated),Potency,[1],inactive
same,Potency,[4],inactive
CC(C)CC(N(C)C)C1(c2ccc(Cl)cc2)CCC1 (configuration not stated),Potency,[1],"inconclusive: 23.5 µM [inhibitor, single point]"
same,Potency,[3],"inconclusive: 33.2 µM [inhibitor, single point]"
same,Potency,[4],"inconclusive: 33.2 µM [inhibitor, single point]"
C[C@]12CC[C@H]3[C@@H](CC[C@@]45O[C@H]4C(O)=C(C#N)C[C@]35C)[C@H]1CC[C@H]2O,Potency,[1],"inconclusive: 33.2 µM [inhibitor, single point]"
same,Potency,[3],"inconclusive: 29.6 µM [inhibitor, single point]"
same,Potency,[5],inactive
COc1ccc(C(=O)c2c(C)n(CCN3CCOCC3)c3cc(I)ccc23)cc1,Potency,[1],"inconclusive: 37.2 µM [inhibitor, single point]"
same,Potency,[3],"inconclusive: 33.2 µM [inhibitor, single point]"
same,Potency,[4],"inconclusive: 33.2 µM [inhibitor, single point]"
same,Potency,[2],"inconclusive: 26.4 µM [inhibitor, single point]"
CC(O)=C(C#N)C(=O)Nc1cc(Br)ccc1Br,Potency,[1],"inconclusive: 26.4 µM [inhibitor, single point]"
same,Potency,[6],"inconclusive: 20.9 µM [inhibitor, partial curve]"
COC(=O)C1=CCCN(C)C1,Potency,[1],"inconclusive: 23.5 µM [inhibitor, single point]"
same,Potency,[3],inactive
same,Potency,[4],"inconclusive: 18.7 µM [inhibitor, partial curve, poor fit]"
Cc1c(C(=O)c2cccc3ccccc23)c2cccc3c2n1[C@H](CN1CCOCC1)CO3,Potency,[1],"inconclusive: 33.2 µM [inhibitor, single point]"
same,Potency,[3],active: 26.4 µM
same,Potency,[2],active: 7.43 µM
same,Potency,[7],"inconclusive: 18.5 µM [inhibitor, partial curve]"
same,Potency,[8],inactive
same,Potency,[5],"inconclusive: 37.2 µM [inhibitor, single point]"
CC[C@@]1(O)C(=O)OCc2c1cc1n(c2=O)Cc2cc3ccccc3nc2-1,Potency,[1],active: 0.0132 µM
same,Potency,[3],active: 0.0093 µM
same,Potency,[6],active: 0.0118 µM
same,Potency,[2],active: 0.332 µM
O=c1[nH]c2ccccc2n1CCCN1CCC(n2c(=O)[nH]c3cc(Cl)ccc32)CC1,Potency,[1],inactive
same,Potency,[7],"inconclusive: 1.31 µM [inhibitor, full curve]"
same,Potency,[8],"inconclusive: 11.7 µM [inhibitor, partial curve, poor fit]"
CC[C@H]1C=CC=CC[C@@H](C)[C@H](O)[C@@](C)(O)C(=O)[C@@H](C)[C@H](O)[C@@H](C)C(=O)[C@@H](C)[C@H](O)[C@@H](C)C=CC(=O)O[C@@H]2[C@@H](C)[C@H](CC1)O[C@]1(CC[C@H](C)[C@H](C[C@@H](C)O)O1)[C@H]2C,Potency,[1],"inconclusive: 0.0059 µM [inhibitor, full curve, poor fit]"
same,Potency,[4],"inconclusive: 23.5 µM [inhibitor, partial curve, poor fit]"
C=C1C[C@H]2[C@H]3CCC(=O)[C@@]3(C)CC[C@@H]2[C@@]2(C)C=CC(=O)C=C12,Potency,[1],"inconclusive: 33.2 µM [inhibitor, single point]"
same,Potency,[3],"inconclusive: 20.9 µM [inhibitor, partial curve]"
same,Potency,[4],"inconclusive: 16.6 µM [inhibitor, partial curve]"
O=C(O)CCCc1ccc(N(CCCl)CCCl)cc1,Potency,[1],"inconclusive: 26.4 µM [inhibitor, single point]"
same,Potency,[3],"inconclusive: 33.2 µM [inhibitor, single point]"
same,Potency,[4],inactive
same,Potency,[8],inactive
CC(=O)N(C)c1cccc(-c2ccnc3c(C(=O)c4cccs4)cnn23)c1,Potency,[1],"inconclusive: 20.9 µM [inhibitor, single point]"
same,Potency,[3],"inconclusive: 26.4 µM [inhibitor, single point]"
same,Potency,[4],"inconclusive: 20.9 µM [inhibitor, partial curve]"
same,Potency,[2],"inconclusive: 37.2 µM [inhibitor, single point] and inconclusive: 29.1 µM [inhibitor, partial curve, poor fit]"
c1ccc(CCCN2CCN(CCOC(c3ccccc3)c3ccccc3)CC2)cc1,Potency,[1],"inconclusive: 26.4 µM [inhibitor, single point]"
same,Potency,[2],active: 18.7 µM
same,Potency,[7],active: 26.1 µM
CCC1(c2ccc(N)cc2)CCC(=O)NC1=O (configuration not stated),Potency,[3],inactive
CC1=NN=C(c2ccc(N)cc2)c2cc3c(cc2C1)OCO3,Potency,[6],inactive
same,Potency,[4],inactive
same,Potency,[8],inactive
C=C[C@@H]1CN2CCC1C[C@@H]2[C@@H](O)c1ccnc2ccccc12 (some centres not stated),Potency,[6],"inconclusive: 23.5 µM [inhibitor, partial curve]"
same,Potency,[4],"inconclusive: 14.8 µM [inhibitor, partial curve]"
same,Potency,[2],"inconclusive: 16.6 µM [inhibitor, partial curve]"
same,Potency,[5],"inconclusive: 37.2 µM [inhibitor, single point]"
C#C[C@]1(O)C=C[C@@H]2[C@@H]3CCC4=CC(=O)CC[C@@H]4[C@H]3CC[C@@]21CC,Potency,[6],inactive
same,Potency,[2],"inconclusive: 37.2 µM [inhibitor, single point]"
NC1=NC(=O)N2CC12 (configuration not stated),Potency,[3],"inconclusive: 26.4 µM [inhibitor, single point]"
same,Potency,[4],inactive
CC(C)C[C@H](CN)CC(=O)O,Potency,[3],"inconclusive: 16.6 µM [inhibitor, partial curve, poor fit]"
same,viability (percent of control),[4],inconclusive: 90.5% [inhibitor]
same,Potency,[9],"inconclusive: 1.4 nM [cytotoxic, full curve, poor fit]"
CC(=CCCC1=CCC(C2=CC(=O)OC2O)OC1O)CCC1=C(C)CCCC1(C)C (configuration not stated),Potency,[3],"inconclusive: 20.9 µM [inhibitor, partial curve, poor fit]"
same,Potency,[6],"inconclusive: 33.2 µM [inhibitor, single point]"
O=c1[nH]c2ccccc2n1C1CCN(Cc2ccc(-c3[nH]c4cc5ncnc5cc4nc3-c3ccccc3)cc2)CC1,Potency,[3],active: 20.9 µM
same,Potency,[10],"inactive and inconclusive: 29.1 µM [inhibitor, single point]"
same,Potency,[2],"inactive and inconclusive: 29.1 µM [inhibitor, single point]"
C[C@@H]1C[C@@H]([C@H](O)CC2CC(=O)NC(=O)C2)C(=O)[C@@H](C)C1,Potency,[11],"inconclusive: 631 nM [cytotoxic, full curve] and inconclusive: 794 nM [cytotoxic, full curve]"
same,Potency,[3],active: 0.235 µM
same,Potency,[2],active: 2.31 µM and active: 590 nM
same,Potency,[5],active: 0.0935 µM
C[C@](O)(COc1ccc(C#N)cc1)C(=O)Nc1ccc(C#N)c(C(F)(F)F)c1,Potency,[3],"inconclusive: 33.2 µM [inhibitor, single point]"
same,Potency,[4],inactive
same,Potency,[5],inactive
C[C@H]([C@H](O)CCC(C)(C)O)[C@H]1CC[C@@]2(O)C3=CC(=O)[C@@H]4C[C@@H](O)[C@@H](O)C[C@]4(C)[C@@H]3CC[C@]12C,Potency,[6],inactive
O=S(=O)(F)Cc1ccccc1,Potency,[3],inactive
same,Potency,[4],"inconclusive: 6.62 µM [inhibitor, partial curve, poor fit]"
C[C@@H]1[C@H](O)[C@@H](C)C=CC=CCCC=CC=CC=CC=C[C@H](O[C@H]2O[C@@H](C)[C@H](O)[C@@H](N)[C@@H]2O)CC2O[C@](O)(C[C@@H](O)[C@H](O)CC[C@@H](O)C[C@@H](O)C[C@@H](O)CC(=O)O[C@H]1C)C[C@H](O)[C@H]2C(=O)O,Potency,[3],inactive
O=[N+]([O-])c1ncc[nH]1,Potency,[4],"inconclusive: 5.26 µM [inhibitor, partial curve, poor fit]"
CO[C@H]1CCC(O[C@H]2C[C@H]([C@]3(C)CC[C@]4(C[C@H](O)[C@@H](C)[C@@H]([C@@H](C)C=C(C)C(=O)[C@H](C)C[C@H](C)C(=O)O)O4)O3)O[C@]3(O[C@@H]([C@H]4O[C@@](O)(CO)[C@H](C)C[C@H]4C)C[C@H]3C)[C@H]2C)O[C@H]1C (some centres not stated),Potency,[3],active: 0.332 µM
same,Potency,[2],"inconclusive: 26.4 µM [inhibitor, single point]"
same,Potency,[5],active: 0.743 µM
C[C@]12CC[C@H]3[C@@H](CCC4=CC(=O)CC[C@@]43C)[C@H]1CC[C@H]2O,Potency,[6],inactive
same,Potency,[4],inactive
same,Potency,[2],active: 11.8 µM
CCN(CC)C(=O)c1ccc(C2=CC3(CCNCC3)Oc3cccc(O)c32)cc1,Potency,[4],"inconclusive: 10.5 µM [inhibitor, partial curve, poor fit]"
C[C@]12CC[C@@H]3[C@@H](CCC4=CC(=O)CC[C@@H]43)[C@@H]1CC[C@@H]2OC(=O)CCc1ccccc1,Potency,[6],"inconclusive: 37.2 µM [inhibitor, single point]"
same,Potency,[4],"inconclusive: 26.4 µM [inhibitor, single point]"
same,Potency,[2],active: 5.8 µM
